According to patent US20230172961A1 (priority 2020, published 2023):

Target: SARS-CoV-2 RdRp complex (nsp12/nsp7/nsp8) (Severe acute respiratory syndrome coronavirus 2, UniProt P0DTD1)
Test: Inhibition of SARS-CoV-2 RdRp complex catalyzed reaction by NS5A inhibitors
Assay type: biochemical
Details: 3 µM UTP, 1 µM RdRp complex, increasing inhibitor concentration

COC[C@H]1C[C@@H](c2nc(-c3ccc4c(c3)COc3cc5c(ccc6nc([C@@H]7CC[C@H](C)N7C(=O)[C@@H](NC(=O)OC)C(C)C)[nH]c65)cc3-4)c[nH]2)N(C(=O)[C@H](NC(=O)OC)c2ccccc2)C1 [Velpatasvir]
reduction of the U extended RNA product peak: reduce the amount of the U extended RNA product peak, though not to the same extent as Daclatasvir
